Binding signal data for 14 molecules are collected here from article PMC12136788.

T1: UNK ZnF1-3 (human, UniProt Q9C0B0 31-174)
T1 sequence: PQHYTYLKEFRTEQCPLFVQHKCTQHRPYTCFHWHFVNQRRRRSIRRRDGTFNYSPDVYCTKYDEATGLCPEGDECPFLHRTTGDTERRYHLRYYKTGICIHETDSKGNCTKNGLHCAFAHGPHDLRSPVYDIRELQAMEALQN

B1: chr8:104447970:104447971:+_ENSG00000164934_ENST00000297579|hu_hu|hu_hu_hu_mus_False|1_108 (ssRNA)
RNA: GGGAGUUCUACAGUCCGACGAUCAUAUACCUCCCUGCUUCGGCUCUUGUCCACAGGAAAGAUUCUAAUAGACUUAUCAAAGCUGGCAGACACAAAUUCCUUCCCAGUGGGAGAGUAGUCCACAUCAAGUACUGCAGAUACAUGCAACAGAGGAUUGAGCAUCA
B2: chr17:60770872:60770873:+_ENSG00000011028_ENST00000303375|hu_hu|hu_hu_hu_mus_True|1_88 (ssRNA)
RNA: GGGAGUUCUACAGUCCGACGAUCUCUUUAAAAAAAAAAAAAAAAAGUUUAAAAACAAUAGCACAUUUCGAGAAUCAAGAACUACAAUAGAGGGUCCGCUUUGAGUUUUUGUUCACAUCGUCCUGCACUGGGACACGACCAGGACAACAGAGGAUUGAGCAUCA
B3: chr8:74858975:74858976:-_ENSG00000154582_ENST00000284811|hu_mus|hu_hu_hu_mus_True|1_1 (ssRNA)
RNA: GGGAGUUCUACAGUCCGACGAUCGACCUUGUAGGUAAAAUACAUGCACACUUUUGAUAGCACAUGUGAGGGGAUCUCUCUAAAAUUGACCUCGUUGGUUUCAUUCUCAGCAAACUGACCUGGACCACUCAACAUAGCUUUUAUCAACAGAGGAUUGAGCAUCA
B4: 147080970_147081090_5547_CDS_ENSMUSG00000025272_ENSMUST00000087258|mouse|control|control (ssRNA)
RNA: GGGAGUUCUACAGUCCGACGAUCAGUGCCCAGUUCACCACCAAAAUCAGUGUUAGUGUUUAGUCCACCAUUGAAGCCAGCACUGUUACCCAGUCCUCCAUUGAAGUCAGCAUUAUGAUUUAGUCCACCACUGAAAUCCGUGCUCAACAGAGGAUUGAGCAUCA
B5: 23985464_23985584_443_3pUTR_ENSG00000151835_ENST00000382298|human|control|control (ssRNA)
RNA: GGGAGUUCUACAGUCCGACGAUCAAAUGUGUACUCCAAGUUCAGCUCUUCCUGCCAGGUGGAAAAAAAGCCUGUUUUUCCCUUCAGUGUCCAUUCAUCAUCUGAUGUCAGGAAACAUUGUCGUGUGUUGCAUUUGUAUUCCUUCAACAGAGGAUUGAGCAUCA
B6: chr4:175160266:175160267:-_ENSG00000164117_ENST00000503293|hu_hu|motif|central (ssRNA)
RNA: GGGAGUUCUACAGUCCGACGAUCAGGGGCAUGGAUAUGACGAAAAAAUUCUCUCAGUGCAUUUGGCAAGAACUGAUUUCGGAAAUUAUGCAAUGUUACAAGGUCAUCCAAGACAUCUCUCCUUUCAUCAAGAUAGAUUCUCAGCAACAGAGGAUUGAGCAUCA
B7: chr2:69661947:69661948:+_ENSMUSG00000042155_ENSMUST00000053087|mus_mus|FALSE|FALSE (ssRNA)
RNA: GGGAGUUCUACAGUCCGACGAUCAGCUCGGUGACAAUGGAAGAUUAUGCCUGAAGGACACUGAAGGGUAAUAUCAGUAAAUAGUCCAUCCAUGUAAAACGUUCUGAAUGCAUCCAGAAAAUCCACUGGAUGCGACGAAUCCUUCAACAGAGGAUUGAGCAUCA
B8: chr2:198351390:198351391:-_ENSG00000144381_ENST00000345042|hu_hu|hu_hu_hu_mus_False|1_48 (ssRNA)
RNA: GGGAGUUCUACAGUCCGACGAUCUCAUUCCCACCCUCCACAGAAAGGCUGCUUCUGAACUCUCAUGUGGUGACACAGCGCUACAGUCCUGAUUUUAACAGAACAGUAGAGAUGCCUCAGUGAUUUAAGUUGAAAGCAGCAGUACAACAGAGGAUUGAGCAUCA
B9: chr2:153593888:153593889:+_ENSMUSG00000027479_ENSMUST00000028981|mus_mus|motif|central (ssRNA)
RNA: GGGAGUUCUACAGUCCGACGAUCCUCAGUAGUGGGUAACACAUUUUGCAGAGUUCGCCAAACAAAGGAAUUGAAUAGGCGGUGGGUAAAGCAAUUGAGGGAGAAUUAAGGAAUGAAGUAUUUUAAAUAUUAAUAUUUCAGUCACAACAGAGGAUUGAGCAUCA
B10: chrX:71549762:71549763:+_ENSMUSG00000019087_ENSMUST00000019231|mus_mus|mus_mus_mus_hu_False|1_88 (ssRNA)
RNA: GGGAGUUCUACAGUCCGACGAUCAAACCCGUGUACUUCUUAUUGUUACAUCACCCCCACCAGAAAACGAUAACGACAGCCAAGCAGGACAGACAGUUAAGUAGUACUUCCACACUCCCAAACUCAGGGAGCCCUAUAGUUCAUCAACAGAGGAUUGAGCAUCA
B11: chr7:157178285:157178286:+_ENSG00000105993_ENST00000429029|hu_hu|FALSE|FALSE (ssRNA)
RNA: GGGAGUUCUACAGUCCGACGAUCGAAUUACUUGUUAUCCAAGCGCAGCAGCUGCUCCUUACCAUUUAUUGUUAAGGACUUUAACUGGCCAUCUUCUUCAACUUCUACUCUUUCUUGACCGUUCUCGACAAUUCUCUUUGUAGUCAACAGAGGAUUGAGCAUCA
B12: chr1:109605286:109605287:-_ENSG00000197780_ENST00000461096|hu_mus|hu_hu_hu_mus_True|38_38 (ssRNA)
RNA: GGGAGUUCUACAGUCCGACGAUCAAGUUUCAGAGUAACAUUCAGUAACCUCUUUAAAUGCAAUUAUCCUUAUUAUAAGCUAAGCAGAAUAAUAAUUUAAUACAUAGAGUGAACUACACACAAAGCCUGAACCGCGAAAAUGGUCAACAGAGGAUUGAGCAUCA
B13: 151880847_151881223_522_CDS_ENSMUSG00000028034_ENSMUST00000166984|mouse|control|control (ssRNA)
RNA: GGGAGUUCUACAGUCCGACGAUCAGGUGUUCCAGUUAGCAUACAAGACCUUUCUGGUAGGCCACCACUAUCAGGUGCUAUCUGUAUCUUGCAUCCAGAUUCCUGCUGUAUUCGUGAGAUCUGUUCACCUCCUCUGCCAAUUAUCAACAGAGGAUUGAGCAUCA
B14: chr7:130129250:130129251:+_ENSMUSG00000030779_ENSMUST00000052135|mus_hu|motif|central (ssRNA)
RNA: GGGAGUUCUACAGUCCGACGAUCCUCCUCUGGUAAGAAGGGAGGUUUCUCUUUCUUCCCAAUUGCAUAUGCUUCUGCAUCGGUAGUUGGUAUUGCAUAUUUUCCAGUGUUGGUAAGCAUUGCACCUUUCAUAUUAGGAUCUUUCAACAGAGGAUUGAGCAUCA

This is one part of the list.

This experiment deals with T1, UNK ZnF1-3. As to the kind of experiment: nsRBNS (natural sequence RNA bind-n-seq); RBNS binding buffer (assumed for nsRBNS): 25 mM Tris pH 7.5, 150 mM KCl, 3 mM MgCl2, 0.01% Triton X-100, 500 ug/ml BSA, 20 U/ml SUPERase-In, 4 C; UNK is unkempt and MSI1 is Musashi-1; names of the RNAs are library labels; protein concentration not given here; high values mean tight binding.
B1 registered a binding signal of 0.947 enrichment R. The molecule B2 returned a binding signal of 3.13 enrichment R.

In turn, B3 displayed a binding signal of 0.84 enrichment R. As to B4, the binding signal turned out to be 0.885 enrichment R.

In turn, B5 had a binding signal of 0.622 enrichment R. For B6 the value was 1.16 enrichment R; for B7, 1.85 enrichment R; for B8, 0.962 enrichment R. Turning to B9, the binding signal was found to be 2.1 enrichment R. Molecule B10 showed a binding signal of 1.66 enrichment R.

As for B11, the binding signal came to 0.431 enrichment R. For B12, the binding signal was found to be 0.748 enrichment R. For B13 the value was 0.627 enrichment R; for B14, 0.366 enrichment R.
